# Hit rate of the full screen: of about 310,000 compounds, about 2,200 (0.71%) showed an effect of 50% or more. The effect is printed as a negative number. Some of the results follow.
# Biological target: human ether-à-go-go-related gene (hERG) potassium channel (human, UniProt Q12809)
# Experiment: primary screen, population patch clamp on CHO cells stably expressing hERG
# Sequence of human ether-à-go-go-related gene (hERG) potassium channel (Q12809 whole entry, looked up): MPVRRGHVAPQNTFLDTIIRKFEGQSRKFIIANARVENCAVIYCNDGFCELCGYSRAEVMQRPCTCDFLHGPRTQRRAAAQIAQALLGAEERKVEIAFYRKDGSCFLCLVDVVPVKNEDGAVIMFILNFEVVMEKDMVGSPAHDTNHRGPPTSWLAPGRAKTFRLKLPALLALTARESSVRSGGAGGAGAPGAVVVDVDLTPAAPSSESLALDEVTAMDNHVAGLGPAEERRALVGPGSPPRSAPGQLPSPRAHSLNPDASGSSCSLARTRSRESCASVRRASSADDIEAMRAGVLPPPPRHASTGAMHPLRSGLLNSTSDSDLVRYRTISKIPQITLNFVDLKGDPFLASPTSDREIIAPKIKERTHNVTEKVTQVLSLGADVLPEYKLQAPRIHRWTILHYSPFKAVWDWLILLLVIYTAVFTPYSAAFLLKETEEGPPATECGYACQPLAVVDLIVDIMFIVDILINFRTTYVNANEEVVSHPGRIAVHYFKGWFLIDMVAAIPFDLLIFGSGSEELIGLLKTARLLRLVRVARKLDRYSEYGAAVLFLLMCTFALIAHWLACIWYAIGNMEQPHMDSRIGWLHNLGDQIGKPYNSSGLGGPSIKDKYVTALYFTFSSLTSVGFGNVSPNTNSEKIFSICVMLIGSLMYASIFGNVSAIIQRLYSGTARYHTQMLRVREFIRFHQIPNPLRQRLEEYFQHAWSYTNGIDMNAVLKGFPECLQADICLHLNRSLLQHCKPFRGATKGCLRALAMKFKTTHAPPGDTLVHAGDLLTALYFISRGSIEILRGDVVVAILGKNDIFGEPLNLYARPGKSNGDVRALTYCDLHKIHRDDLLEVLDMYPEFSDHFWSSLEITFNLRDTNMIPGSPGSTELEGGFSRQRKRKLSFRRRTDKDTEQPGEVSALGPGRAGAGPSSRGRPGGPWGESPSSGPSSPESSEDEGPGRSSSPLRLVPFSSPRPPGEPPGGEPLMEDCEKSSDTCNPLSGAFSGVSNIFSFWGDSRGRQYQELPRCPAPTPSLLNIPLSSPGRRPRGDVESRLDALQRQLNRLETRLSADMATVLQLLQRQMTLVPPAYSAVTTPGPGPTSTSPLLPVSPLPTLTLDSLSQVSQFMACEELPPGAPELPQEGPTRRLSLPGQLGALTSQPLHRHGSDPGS
row,Structure (SMILES),"hERG current change (%, negative = inhibition) at 1uM [%]"
1,CC1CC(C)CN(S(=O)(=O)c2ccc(Cl)cc2)C1 (centres unmarked),8.74
2,COc1cccc(CNC(=O)C2CCC(CNS(=O)(=O)c3cccc4nsnc34)CC2)c1 (centres unmarked),7.46
3,CCc1cccc(N(C(=O)c2csnn2)C(C(=O)NC2CCCCC2)c2ccncc2)c1 (centres unmarked),6.54
4,Cc1nn(C)c(NC(=O)c2ccccc2Cl)c1Cl,13.8
5,CC(C)OCC(O)CN1CCN(CCN2C(=O)c3cccc4cccc(c34)C2=O)CC1.Cl (centres unmarked),-16.3
6,CC(C)(C)CC(=O)Nc1ccc(S(=O)(=O)N2CCCC2)cc1,9.63
7,COc1ccc(N2CC(NS(=O)(=O)c3cccs3)CC2=O)cc1 (centres unmarked),17.2
8,CC1Cc2ccccc2N1C(=O)CN1CCN(S(=O)(=O)c2cccs2)CC1 (centres unmarked),7.12
9,CNC(=O)C1CC(=O)N(c2ccc(OCC(=O)NCc3ccccc3)cc2)C1 (centres unmarked),15.3
10,COC(=O)c1ccc(OC(=O)C2CC(=O)N(c3ccc(C)cc3C)C2)cc1 (centres unmarked),7.34
11,NC(=O)c1ccc(NC(=O)CNC(=O)c2sc3ccccc3c2Cl)cc1,15.5
12,CC1(C)Cc2c(cnn2-c2ccc(F)cc2)C(NC(=O)CCCN2CCCCC2=O)C1 (centres unmarked),8.56
13,Cc1c(Cc2ccccc2)c(=O)oc2cc(OCC(N)=O)ccc12,6.9
14,COc1ccc(CN2CCOCC2)cc1,3.2
15,Cc1cccc2nc3c(nc12)CCCC3,0.436
16,Cc1cc(Cl)c(S(=O)(=O)NC(C(=O)O)C(C)C)cc1OCC(=O)NC1CCCCC1 (centres unmarked),12.1
17,O=C(CCCCO)c1ccc(O)c(Cl)c1,6
18,CC(=O)Oc1ccc(/C(C)=N/N2CCN(Cc3ccc(C)cc3)CC2)cc1,-69.8
19,C=CCN1C(=O)N(CC=C)c2cccc3cccc1c23,13.4
20,OCCCc1nc2n(n1)C(c1ccccc1)C=C(c1ccc(F)cc1)N2 (centres unmarked),8.86
21,COCCn1cnc2c1c(=O)n(CC(=O)NN)c(=O)n2Cc1ccccc1,11.8
22,CCN1C(=O)[C@@H]2[C@@H](c3ccc(SC4CCCCC4)c(OC)c3)N3CCC[C@@]3(C(=O)OC)[C@@H]2C1=O.O=C(O)C(F)(F)F,7.52
23,O=C(N/N=C/c1c[nH]c2ccc(Br)cc12)c1ccn(Cc2ccc(Cl)cc2Cl)n1,8.74

row,Structure (SMILES),"hERG current change (%, negative = inhibition) at 1uM [%]"
1,CCCc1nc(N)c(C#N)c(-c2ccco2)c1CC,13.6
2,O=C(O)c1ccccc1/C=N/n1c(C2CCCCC2)n[nH]c1=S,16.5
3,CCn1c(SCc2nc3ccccc3[nH]2)nnc1-c1cccs1,-16.5
4,O=C(O)CSc1nnc(Nc2ccccc2)n1-c1ccccc1,15.9
5,Cc1cccc(N2CC(C(=O)NCCC3=CCCCC3)CC2=O)c1C (centres unmarked),7.01
6,O=C(CNC(=O)c1ccc(OC(F)F)cc1)NCC1(N2CCOCC2)CCCCC1,-31.7
7,CC(C)c1ccc(/C=N/N2CCN(c3ccccn3)CC2)cc1,13.4
8,c1cnc2c(Oc3ncnc4sccc34)cccc2c1,3.15
9,Nc1c(C(=O)Nc2nc3ccccc3s2)sc2nc(-c3cccs3)ccc12,2.75
10,CC(=O)N1c2ccc(S(=O)(=O)N3CCCC3)cc2CC1C(=O)Nc1cc(C)cc(C)c1 (centres unmarked),0.812
11,CCN1C(=O)N(c2cccc3ccccc23)C(C)=CC1(C)C,5.51
12,Cc1[nH]n(-c2ccccc2)c(=O)c1/C=N/NC(=O)c1ccccc1F,12.3
13,CC(Nc1nc(-c2ccc(F)cc2)cs1)c1nc2cc(Cl)c(Cl)cc2n1CCOCCO (centres unmarked),1.95
14,CC1CCCN(C(=O)c2ccc(N3CC4CC(C3)c3cccc(=O)n3C4)c([N+](=O)[O-])c2)C1 (centres unmarked),5.59
15,Cc1ccc(-c2noc(CSc3nnc(Cc4ccccc4)n3-c3cccc(C)c3)n2)cc1,-4.69
16,CCCCC(=O)N(c1ccc(C)c(C)c1)C1C=CS(=O)(=O)C1 (centres unmarked),12.7
17,CCn1c(SCC(=O)N2CCN(c3ccccc3)CC2)nc2c(c1=O)SC(C)C2 (centres unmarked),-0.0715
18,CC(C)COP(=O)(OCC(C)C)C(Nc1ccccc1)c1ccccc1 (centres unmarked),8.62
19,Cc1ccc(NC(=O)CN(c2ccccc2)S(=O)(=O)N(C)C)cc1C,12.8
20,CCCNC(=O)CCc1cc(C(C)(C)C)c(O)c(C(C)(C)C)c1,13.6
21,Cc1ccc(NCc2nnc(SCCN3CCCCC3)n2CC2CCCO2)c(C)c1 (centres unmarked),-10.7
22,COC(=O)Nc1ccc2c(c1)N(C(=O)CCN1CCOCC1)c1ccccc1S2.Cl,7.18
23,COc1cc(/C=N/NC(=O)c2ccccc2)ccc1OS(=O)(=O)c1ccccc1,4.34

row,Structure (SMILES),"hERG current change (%, negative = inhibition) at 1uM [%]"
1,CCC(=O)NNc1ccc(Br)cc1,4.6
2,Cc1nnc(SCCn2c(N3CCC(C)CC3)nc3c2c(=O)[nH]c(=O)n3C)s1,10.3
3,Cc1c(C(=O)N2CCN(C(=O)c3ccccc3)CC2)oc2ccc(F)cc12,-5.86
4,COC(=O)C(=C/C(C)=C/c1cccnc1)C(=O)OC,5.72
5,CCNc1nc(NCC)nc(N(C)n2cnnc2)n1,-14.5
6,CCC1[NH+]=C(SC)NC(C)=C1C(=O)c1ccccc1.[I-] (centres unmarked),-8.23
7,COCCn1c(SCC(=O)Nc2cccc(C(=O)OC)c2)nc2ccccc2c1=O,-26.7
8,CCOC(=O)C1CCCN(S(=O)(=O)c2ccc(C)cc2)C1 (centres unmarked),-3.61
9,Nc1nc2c(F)cccc2s1,17.7
10,CCOC(=O)Nc1c(C)n(C)n(-c2ccccc2)c1=O,5.85
11,CCN1C(=O)c2ccccc2S(=O)(=O)c2ccc(C(=O)NCCCN(CC(C)C)CC(C)C)cc21,6.62
12,COc1ccc(N2CCN(c3nc(NC(C)(C)C)nc(N4CCCCC4)n3)CC2)cc1,8.28
13,CCCc1cc(=O)[nH]c(SCC(=O)Nc2cc(C)on2)n1,-39.7
14,O=C(NCc1ccncc1)C(=O)Nc1nc(C23CC4CC(CC(C4)C2)C3)cs1,0.149
15,O=S(=O)(O)c1nc2ccccc2n1Cc1cccc2ccccc12,17.2
16,O=S(=O)(c1ccc(F)cc1)N1CCN=C1SCc1cccc(F)c1,5.87
17,CCc1nnc(NC(=O)C(=O)NCCOC(=O)c2ccccc2Cl)s1,10.1
18,COc1ccc(NC(=O)COc2coc(CN3CCc4ccccc4C3)cc2=O)cc1,-4.74
19,N#C/C(=C\Nc1ccc2c(c1)OCCO2)c1nc2ccccc2[nH]1,4.33
20,NS(=O)(=O)c1ccc(CCNC(=O)Nc2ccc(Cl)cc2)cc1,-2.21
21,CN=C1SC(CC(=O)Nc2ccc(N3CCOCC3)cc2)C(=O)N1C (centres unmarked),1.66
22,CC1CCCC(N2CCN(S(=O)(=O)c3ccccc3)CC2)C1.O=C(O)C(=O)O (centres unmarked),13.7
23,CCOc1ccc(CN(C)CCc2ccccn2)cc1.O=C(O)C(=O)O,-58.8

row,Structure (SMILES),"hERG current change (%, negative = inhibition) at 1uM [%]"
1,Cc1nn(Cc2ccccc2)c2c1C(c1ccncc1)C(C#N)=C(N)O2 (centres unmarked),8.88
2,CC12CCC(=O)N1C(C(=O)Nc1nc3ccc(S(C)(=O)=O)cc3s1)CS2 (centres unmarked),15.9
3,Cc1ccc(S(=O)(=O)NNC(=O)C2COc3ccccc3O2)cc1C (centres unmarked),18.3
4,CCC(=O)Nc1ccc(N2CCCCC2)c(C(=O)Nc2ccccc2C)c1,16.9
5,CC(C)n1cnc2c(Nc3ccc(F)c(Cl)c3)nc(NCCO)nc21,-0.419
6,C/C(=N\O)c1c(O)cc(-c2ccccc2)n(-c2ccccc2)c1=O,12
7,Cc1cccc(/C=N\NC(=O)c2csnn2)c1,8.11
8,CCOC(=O)c1csc(NC(=O)c2ccc(N3C(=O)CCC3=O)cc2)n1,5.49
9,Cc1ccccc1CN(C)CC(=O)Nc1c(C)cccc1C(C)C,10.4
10,CN(c1ccc(F)cc1)S(=O)(=O)c1ccc(Cl)c(C(=O)NC2(C)CCS(=O)(=O)C2)c1 (centres unmarked),15.9
11,CCOC(=O)C1=C(CSCc2ccccc2)NC(=O)NC1c1cc(C)ccc1C (centres unmarked),11.1
12,O=C(COc1cccc(F)c1)N[C@@H](Cc1ccccc1)c1nc2ccccc2[nH]1,12.9
13,CCn1c2ccccc2c2nc3ccccc3nc21,12.2
14,Cc1ccc(OCCn2c3ccccc3n3nc(C)c(=O)nc23)cc1,14.4
15,CCN1CCN(c2ncc(C(=O)N3CCCc4ccccc43)c3ccccc23)CC1,-11.6
16,Cc1csc(NC(=O)c2cccn2C)n1,10.7
17,CC1Sc2ccc(S(=O)(=O)CCC(=O)NCc3cccs3)cc2NC1=O (centres unmarked),13.1
18,COc1ccc(OC)c(NC(=O)C2CC(=O)n3ncnc3N2)c1 (centres unmarked),-6.75
19,O=C(N/N=C/c1cccc(O)c1)c1ccc(COc2ccccc2Br)cc1,1.93
20,CCc1nc2ccccc2n1Cc1ccc(OC)c(OC)c1,-1.45

# Source: PMC4336329 (PLoS ONE, 2015)
